Experimental data: the supplement of paper PMC10126150
Values marked as one replicate rest on one cluster of the flow cell; about a third of the high ones do not repeat.

system: ATP; test: switch fluorescence ratio, 500 uM ATP over buffer (Cy3 cluster intensity, sum of 5 cycles each) (fold (ratio)); higher = stronger signal-on switching upon ATP binding; sequences stand for … in TCGTCGGCAGCGTCAGATGTGTATAAGAGACAGTTTTTTTTTTTTTTTTTTTTTTTTT…TC; settings: aptamer strand: ATP DNA aptamer (quencher-CACCTGGGGGAGTATTGCGGAGGAAGG + anchor), 100 nM annealed; ATP concentration: 500 uM; one replicate
In short: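 The quencher-labelled ATP aptamer, at 100 nM, was annealed to Cy3-labelled switching-strand clusters on a modified Illumina MiSeq flow-cell. The clusters were imaged in selection buffer, then after 15 min with 500 uM ATP at 22 °C, and this buffer/ATP cycle ran five times with NaOH stripping and re-annealing between runs. Per-cluster fluorescence ratios, summed target-cycle over summed buffer-cycle Cy3 intensity, were averaged per switch-domain sequence. Clusters outside 100-1000 RFU were excluded.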
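Note: ATP exposure 15 min at 22 °C before imaging.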

| Sequence | switch fluorescence ratio |
| --- | --- |
| ACATTCACAT | 1.19 |
| ACATTGTTGT | 0.973 |
| ACCAACCTAC | 1.41 |
| ACCAAGAAGT | 1.08 |
| ACCAAGCAA | 2.51 |
| ACCAAGCTCC | 1.27 |
| ACCAAGGGTC | 0.961 |
| ACCAAGTCA | 1.07 |
| ACCAAGTGCG | 1.01 |
| ACCAATAAGG | 0.98 |
| ACCAATGTAT | 0.976 |
| ACCACAATAT | 1.94 |
| ACCACCATCA | 1.17 |
| ACCACCCTGT | 1.05 |
| ACCACCGGCT | 1.02 |
| ACCACCGGTT | 1.04 |
| ACCACGATAA | 1.23 |
| ACCACTTTGA | 1.01 |
| ACCAGAAAGC | 1.1 |
| ACCAGCCAAC | 1.15 |
| ACCAGCGACA | 0.991 |
| ACCAGCGGCC | 1.04 |
| ACCAGGTTGC | 1.6 |
| ACCAGTGCGG | 1.02 |
| ACCAGTTGGG | 0.97 |
| ACCATCCTC | 1.8 |

| Sequence | switch fluorescence ratio |
| --- | --- |
| ACCATGGTCT | 0.965 |
| ACCATTGAGA | 0.997 |
| ACCATTGGGC | 0.959 |
| ACCCAACGTC | 1.29 |
| ACCCATGTC | 1.09 |
| ACCCATTAAT | 0.971 |
| ACCCCAGACT | 1.1 |
| ACCCCCCATT | 1.31 |
| ACCCCCCTAC | 1.4 |
| ACCCCCGCAA | 2.23 |
| ACCCCCGGGA | 1.98 |
| ACCCCCGTTA | 1.35 |
| ACCCCGAATT | 1.04 |
| ACCCCGACTA | 1.34 |
| ACCCGATCAC | 1.23 |
| ACCCGATCCG | 1.09 |
| ACCCGCGTCA | 1.25 |
| ACCCGTCGGT | 1.06 |
| ACCCTAACTA | 1.06 |
| ACCCTCAACC | 1.07 |
| ACCCTTAGCA | 1.09 |
| ACCCTTATGA | 1.02 |
| ACCCTTGAGT | 1.04 |
| ACCCTTTATA | 1.03 |
| ACCGACATAT | 1.26 |
| ACCGAGTGAG | 1.01 |

| Sequence | switch fluorescence ratio |
| --- | --- |
| ACCGAGTGGA | 1.05 |
| ACCGATGGGC | 1.02 |
| ACCGCAAAGC | 2.06 |
| ACCGCAAGGA | 2.94 |
| ACCGCGTTAT | 1.21 |
| ACCGCTCGAT | 1.08 |
| ACCGGATAGT | 1 |
| ACCGGCAATT | 1.2 |
| ACCGGCTCGC | 1.29 |
| ACCGGGGGTT | 1.06 |
| ACCGGGTCGT | 0.978 |
| ACCGGTAAGT | 1.02 |
| ACCGGTATAA | 1 |
| ACCGTAAGGG | 0.982 |
| ACCGTAATTC | 4.45 |
| ACCGTACCGC | 1.7 |
| ACCGTACCGT | 1.5 |
| ACCGTAGAAA | 1.82 |
| ACCGTAGATA | 1.11 |
| ACCGTATTGG | 1.05 |
| ACCGTCCTCA | 1.99 |
| ACCGTTCGAA | 1.03 |
| ACCGTTGTGG | 0.98 |
| ACCGTTTGGG | 0.985 |
| ACCTAACGTC | 1.34 |
| ACCTACGCCC | 1.54 |

| Sequence | switch fluorescence ratio |
| --- | --- |
| ACCTACTGCG | 1.18 |
| ACCTACTTTA | 1.2 |
| ACCTAGCAGG | 1.01 |
| ACCTAGCGGT | 1.03 |
| ACCTAGGGCG | 0.989 |
| ACCTAGGGTC | 1.06 |
| ACCTATATGG | 1.02 |
| ACCTCAATCT | 1.13 |
| ACCTCTACTA | 1.24 |
| ACCTCTTTG | 0.991 |
| ACCTGAACCA | 1.11 |
| ACCTGAACT | 1.59 |
| ACCTGAGTAG | 1.02 |
| ACCTGCATGC | 1.98 |
| ACCTGCGGTA | 0.981 |
| ACCTGGAAC | 1.08 |
| ACCTGGACAT | 0.995 |
| ACCTGGGATT | 1 |
| ACCTGTGTAG | 1.13 |
| ACCTTCCAGG | 1.17 |
| ACCTTCTCA | 1.19 |
| ACCTTGGGCT | 0.99 |
| ACCTTGTAG | 1.02 |
| ACCTTTGGCC | 1.09 |
| ACGAAAAAA | 0.853 |
| ACGAAAC | 1.17 |

| Sequence | switch fluorescence ratio |
| --- | --- |
| ACGAAACAAT | 1.18 |
| ACGAAGCCAT | 1.78 |
| ACGAAGTGCA | 1 |
| ACGAATCTTT | 1 |
| ACGAATGCAG | 1.12 |
| ACGAATGTAA | 0.95 |
| ACGACGGCTA | 1.98 |
| ACGACTGACG | 1.16 |
| ACGACTTTAA | 0.989 |
| ACGAGAAAAG | 0.998 |
| ACGAGAAATT | 1.02 |
| ACGAGACCTT | 1.29 |
| ACGAGAGGAA | 1.02 |
| ACGAGATACT | 1.55 |
| ACGAGCGACT | 1.08 |
| ACGAGCTTTT | 1.05 |
| ACGATAAGGG | 1.06 |
| ACGATCCTGA | 1 |
| ACGATCTGCT | 1.04 |
| ACGATGCCAT | 1.15 |
| ACGATGCGG | 1.07 |
| ACGATGTTAT | 1.03 |
| ACGATTTTC | 1.04 |
| ACGCATCACG | 1.14 |
| ACGCCACG | 1.49 |
| ACGCCATGC | 3.27 |

| Sequence | switch fluorescence ratio |
| --- | --- |
| ACGCCCACAA | 1.29 |
| ACGCCTGCGC | 1.06 |
| ACGCCTTTCA | 1.03 |
| ACGCGACTAA | 1.11 |
| ACGCGACTTT | 1.14 |
| ACGCGATCAT | 0.967 |
| ACGCGCGATA | 1.13 |
| ACGCGGCTTG | 1 |
| ACGCGGGAAG | 1.02 |
| ACGCGTAGCC | 1.01 |
| ACGCGTATCA | 1.03 |
| ACGCTAAACT | 1.71 |
| ACGCTAAGAA | 1.18 |
| ACGCTACTAA | 1.44 |
| ACGCTATATC | 3.24 |
| ACGCTCGAG | 1.04 |
| ACGCTGGGAA | 1.02 |
| ACGCTTAGAT | 1.04 |
| ACGCTTATTT | 1.04 |
| ACGCTTCCTC | 2.83 |
| ACGCTTGGCT | 1.9 |
| ACGCTTTGGG | 1.02 |
| ACGGAAGTAC | 1.43 |
| ACGGAGGAGT | 1.04 |
| ACGGAGGTTT | 0.974 |
| ACGGATTTTG | 0.992 |

| Sequence | switch fluorescence ratio |
| --- | --- |
| ACGGCAAAAA | 1.01 |
| ACGGCAAGCC | 1.27 |
| ACGGCAAGTA | 1.04 |
| ACGGCATTG | 1.03 |
| ACGGCGAGGC | 1.03 |
| ACGGCGCTGC | 1.19 |
| ACGGCTTCGA | 0.987 |
| ACGGGCTTAC | 1.9 |
| ACGGGGCATG | 0.978 |
| ACGGGGTATA | 1.04 |
| ACGGGGTTAA | 1.03 |
| ACGGGTCACT | 1.07 |
| ACGGGTCGTC | 0.993 |
| ACGGGTGTTT | 0.962 |
| ACGGGTTGGA | 1.03 |
| ACGGTATGGT | 1.09 |
| ACGGTCCTCG | 1.01 |
| ACGGTGCGGC | 1.11 |
| ACGGTGGCAT | 1.06 |
| ACGGTGGCGG | 1.01 |
| ACGGTGGTGC | 0.996 |
| ACGGTTCGTA | 1.01 |
| ACGGTTGTTG | 1.01 |
| ACGTAACGTT | 1.14 |
| ACGTAACTCG | 1.19 |
| ACGTACCCTG | 1.58 |

| Sequence | switch fluorescence ratio |
| --- | --- |
| ACGTACGTCA | 1.23 |
| ACGTAGCG | 1.16 |
| ACGTATAGCT | 1.13 |
| ACGTATCCC | 1.15 |
| ACGTATCTAT | 1.15 |
| ACGTATGTTT | 1.08 |
| ACGTCCAATG | 1.03 |
| ACGTCCGGGA | 1.14 |
| ACGTCGAAGG | 0.981 |
| ACGTCGAGGG | 1.01 |
| ACGTCGATGC | 1.11 |
| ACGTCGGGAG | 0.995 |
| ACGTCGTATC | 0.991 |
| ACGTCTTTAT | 0.959 |
| ACGTGAAAAT | 1.1 |
| ACGTGAGTAG | 1.01 |
| ACGTGATGCG | 1.11 |
| ACGTGGAGTC | 1 |
| ACGTGGGAG | 1.02 |
